The text below walks through data of paper PMC9574860, “Chemical Toolkit for PARK7: Potent, Selective, and High-Throughput” (Journal of Medicinal Chemistry, 2022).

Hit rate of the full screen: of about 7,900 compounds, about 400 (5.1%) showed an effect of 50% or more. This is one part of the list.

In this assay the target is Parkinson's disease protein 7 (PARK7/DJ1) (human, UniProt Q99497). Briefly: primary screen, percent inhibition; read as competition with a fluorescent probe by fluorescence polarization; higher = more effect of the substance. The conditions noted are these: 100 µM. Summed up: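 Covalent fragments at 100 μM final were incubated 2 h with 0.2 μM PARK7, then 20 nM probe JYQ-107 added for a further 2 h. Fluorescence polarization read at 480/520 nm; relative FP loss versus reference controls gave remaining enzyme activity.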
Sequence of Parkinson's disease protein 7 (PARK7/DJ1) (Q99497 whole entry, looked up, the tested form may be a part): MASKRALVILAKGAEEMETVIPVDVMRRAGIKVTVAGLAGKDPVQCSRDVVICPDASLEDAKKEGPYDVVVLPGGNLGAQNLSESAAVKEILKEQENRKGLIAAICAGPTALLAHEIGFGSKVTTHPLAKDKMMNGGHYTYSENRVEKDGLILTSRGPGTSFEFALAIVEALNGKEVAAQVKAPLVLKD
Turning to `CN(Cc1nc2ccccc2c(=O)[nH]1)C1CCOC1=O` (stereo not shown), the Inhibition % is on record as 19%.

Turning to `CNC1CCCN(C(=O)C=Cc2csc(C)n2)C1` (stereo not shown), the Inhibition % was found to be 10.5%.

Turning to `C=CC(=O)N1CCC(CCC(N)=O)CC1`, the Inhibition % was found to be 0.755%.

On to `N#Cc1cnn(-c2ccccc2)n1`, for which the Inhibition % was 3.14%.

For the compound `Cc1nn(S(=O)(=O)c2ccccc2)c(C)c1C`, the Inhibition % stood at 6.77%.

Turning to `COc1ccc(NC(=O)CCl)cc1`, the Inhibition % was 55.2%.

Take `COc1cc(C)c(C)cc1S(=O)(=O)n1cccn1`: the Inhibition % is recorded as 6.67%.

For `O=C(C=Cc1cccnc1)N1CCc2ccccc2C1`, the Inhibition % amounted to 2.87%.

Take `CC1CC(N2CCC(O)CC2)C(=O)O1` (stereo not shown): the Inhibition % stood at 5.67%.

Take `OB(O)C1CCN(Cc2cn(C3CCC3)nn2)C1` (stereo not shown): the Inhibition % came out at 16%.

Take `FC(F)(F)c1cc(S)ncn1`: the Inhibition % turned out to be 23.7%.

As to `CC(NC(=O)CCl)c1ccc2ccccc2c1` (stereo not shown), the Inhibition % worked out at 10%.

With `N#Cc1ncn(CC(=O)N(C2=CCCCC2)C2CC2)n1`, the Inhibition % amounted to 29.4%.

Take `C=CC(=O)NC1CCCN(Cc2ccccn2)C1=O` (stereo not shown): the Inhibition % came to 8.53%.

For the compound `N#CC(=Cc1ccc(OC(F)F)c(Cl)c1)C(N)=O`, the Inhibition % is reported as 8.67%.

As to `CCCc1nnc(NS(=O)(=O)c2ccc(S(=O)(=O)F)cc2)o1`, the Inhibition % was determined as 49.9%.

`C=C(C)CC(C)C(=O)NCc1cc(=O)[nH]c(S)n1` (stereo not shown): the Inhibition % amounted to 8.98%.

For `O=C(CCl)NCc1ccc(N2CCCC2=O)cc1`, the Inhibition % amounted to 7.36%.

For the compound `CC1(C)OB(c2ccc(F)cc2F)OC1(C)C`, the Inhibition % was 0.286%.

Consider `COC(=O)c1cc(B2OC(C)(C)C(C)(C)O2)ccc1NC(=O)OC(C)(C)C`, for which the Inhibition % turned out to be 12.2%.

Consider `COc1c(C2CCCN2C2CCOC2=O)c(C)nn1C` (stereo not shown), for which the Inhibition % was found to be 2.74%.

On to `Cc1nc(C(C)(C)C)nc(S)c1C(=O)O`, for which the Inhibition % was determined as 1.97%.

Turning to `C=CC(=O)NCC1CC2CCC(C1)S2` (stereo not shown), the Inhibition % is listed as 2.67%.

For `O=C(CCl)Nc1ccccc1C(=O)NCc1ccco1`, the Inhibition % was found to be 7.43%.

For `CC(C#N)NS(=O)(=O)c1ccc(S(=O)(=O)F)cc1` (stereo not shown), the Inhibition % amounted to 23.5%.

For the compound `O=C(c1cccc(F)c1Cl)N1CCC(C2OCCO2)CC1`, the Inhibition % stood at 6.27%.

Consider `N#Cc1nc(NCc2ccncc2)ccc1Cl`, for which the Inhibition % is on record as -1.99%.

In the case of `O=C(CCl)Nc1cccc(C(F)(F)F)c1`, the Inhibition % stood at 23.1%.

Turning to `C=CC(=O)Nc1cccc2c1CN(CC(C)C)C2`, the Inhibition % is reported as 8.44%.

As for `C=CC(=O)NCc1nnc2ccc(C(F)(F)F)cn12`, the Inhibition % was 2.93%.

As for `Cc1ccc(C=C(C#N)C(=O)Nc2nccs2)o1`, the Inhibition % is 4.95%.

On to `Cc1cc(B2OC(C)(C)C(C)(C)O2)c(C)cn1`, for which the Inhibition % is -1.01%.

Turning to `COc1ccc(CS(=O)(=O)F)cc1[N+](=O)[O-]`, the Inhibition % came to 18.4%.

Turning to `CS(=O)(=O)OC1CCCCC1`, the Inhibition % was determined as 11.8%.

Turning to `CCc1nc(C)cn1S(=O)(=O)c1cc(C)c(C)cc1OC`, the Inhibition % is on record as 11.8%.

`C=CC(=O)N1CCCC1CC(=O)c1cnn(C)c1` (stereo not shown): the Inhibition % came to 4.28%.

As for `Cc1noc(C)c1Cn1c(-c2ccccn2)noc1=O`, the Inhibition % worked out at 0.962%.

Take `COC(OC)c1ccnc(C2CC2)n1`: the Inhibition % came out at 9.42%.

In the case of `CCN1C(=O)CSC1=C(C#N)C(N)=O`, the Inhibition % is given as -0.475%.

As for `C=CC(=O)N1CCNC(=O)CC1c1ccccc1` (stereo not shown), the Inhibition % turned out to be 9.46%.

Consider `N#Cc1ccc(N2CC(O)(c3ccc(F)cc3)C2)cn1`, for which the Inhibition % is listed as 7.79%.

With `CC1CC(Sc2ccccn2)C(=O)O1` (stereo not shown), the Inhibition % came out at 5.37%.

Take `O=C(CCl)c1ccccc1`: the Inhibition % is on record as 56.6%.

As for `CCc1ccc(OC)c(S(=O)(=O)n2ccc(C)n2)c1`, the Inhibition % is 0.685%.

As for `C=CC(=O)N1CCCC(c2ccncn2)C1` (stereo not shown), the Inhibition % turned out to be 19.2%.

Take `O=C(O)C1CCN(S(=O)(=O)C=Cc2ccccc2)CC1`: the Inhibition % was determined as 8.92%.

For the compound `Cc1nc(N)nc(S)n1`, the Inhibition % is given as 2.52%.

`O=C(CCl)Nc1ccc([N+](=O)[O-])cc1Cl`: the Inhibition % is on record as 14.3%.

Consider `CC1(C)OB(c2ccc3c(c2)COCC3)OC1(C)C`, for which the Inhibition % was determined as 5.99%.

With `O=S(=O)(Oc1ccc(Cl)c2cccnc12)c1c[nH]cn1`, the Inhibition % stood at 5.92%.

As for `CC1(C)CC(=O)N1CN1CCC2(CC1)OCCO2`, the Inhibition % is 5.08%.

`COc1cc(S(=O)(=O)n2cnc(C)c2)ccc1Cl`: the Inhibition % was found to be 6.12%.

In the case of `COc1ccc(C(NC(=O)CCl)C(C)C)cc1` (stereo not shown), the Inhibition % is listed as 5.34%.

`COc1ccc(C=CB2OC(C)(C)C(C)(C)O2)cc1`: the Inhibition % came out at 5.69%.

With `Cc1ccc(C(=O)Cn2cnc(C#N)n2)cc1`, the Inhibition % came out at 2.84%.

`C=CC(=O)NC(c1ccnc(Cl)c1)C1CC1` (stereo not shown): the Inhibition % is reported as 4.26%.

Consider `CCOc1ccc(S(=O)(=O)F)cc1`, for which the Inhibition % is 5.8%.

Turning to `O=C(Cc1cccc(C(F)F)c1)Nc1cccc(S(=O)(=O)F)c1`, the Inhibition % is listed as 52%.

On to `COC(=O)c1ccc(S(=O)(=O)F)cc1F`, for which the Inhibition % is 4.21%.

For `Nc1cccc(N2CCC2=O)c1`, the Inhibition % is 10.1%.

Regarding `COc1ccc(NC(=O)C(C#N)=Cc2ccco2)cn1`, the Inhibition % amounted to 10.5%.

Turning to `Cc1cccc(N(CCC#N)C(=O)CCl)c1C`, the Inhibition % was 6.01%.

In the case of `Cc1cccc2c(=O)[nH]c(C(Cl)=Cc3cccnc3)nc12`, the Inhibition % is 5.81%.

As for `O=C(CCl)Nc1ccc(OC(F)(F)F)cc1`, the Inhibition % turned out to be 86%.

Consider `C=CC(=O)N1CCCC1c1cc(C)on1` (stereo not shown), for which the Inhibition % was 13.9%.

Take `CC1CC(N2CCc3sccc3C2)C(=O)O1` (stereo not shown): the Inhibition % amounted to 13.9%.

For `COc1ccc(S(=O)(=O)n2cccn2)cc1`, the Inhibition % is recorded as 3.02%.

For `CC(C)(C)OC(=O)N1C2CCC1C(B1OC(C)(C)C(C)(C)O1)C2` (stereo not shown), the Inhibition % came to 9.39%.

On to `C=CC(=O)N1[C@H](C)CN(C(=O)C(C)(C)C)C[C@@H]1C`, for which the Inhibition % came out at 6.94%.

In the case of `C=CC(=O)NCCc1cc2ccccc2s1`, the Inhibition % was found to be 1.96%.

As for `C=CC(=O)N1CCCCCC1c1ncon1` (stereo not shown), the Inhibition % is 11%.

Take `N#CC1(NC(=O)CCl)CCC1`: the Inhibition % is on record as 20.1%.

Turning to `CC(C)(C)NC(=O)Cn1cnc(C#N)n1`, the Inhibition % is 8.15%.

As to `Cc1nccn1CCCCl.Cl`, the Inhibition % came to 3.62%.

Regarding `C=CC(=O)N1CCCN(C(=O)c2ccc(OC)cc2)CC1`, the Inhibition % is 7.43%.

Take `CCOCc1ccc(B2OC(C)(C)C(C)(C)O2)cc1F`: the Inhibition % was -3.51%.

For `CC1CN(C)CCN1C(=O)C=Cc1ccccn1` (stereo not shown), the Inhibition % is on record as 10.3%.

Consider `O=C(Nc1ccc(CNC(=O)n2ccnc2)cc1)C1CC1`, for which the Inhibition % came out at 92.1%.

Consider `O=C1CC(CC(=O)N2CC3C4C=CC(CC4)C3C2)CO1` (stereo not shown), for which the Inhibition % worked out at 8.44%.

With `CC1CN(C(=O)C=Cc2nc3ccccc3o2)CC(C)O1` (stereo not shown), the Inhibition % is 8.55%.

For the compound `C=CC(=O)N1CCOC(C)(C(F)F)C1` (stereo not shown), the Inhibition % was 7.7%.

As for `O=C1OC(c2ccccc2)=NC1=Cc1cscn1`, the Inhibition % is given as 5.55%.

As to `Cl.Cn1ncc2ncc(B(O)O)cc21`, the Inhibition % is on record as 1.79%.

For `CCNC(=O)c1cc(S)ccn1`, the Inhibition % is 3.61%.

For `COc1cc(NC(=O)OC(C)(C)C)ccc1B1OC(C)(C)C(C)(C)O1`, the Inhibition % came out at 14.5%.

For `Cn1cc(CO)cc1C#N`, the Inhibition % is recorded as 4.94%.

`N#Cc1cccc(N2CCC(C3CCCO3)CC2)n1` (stereo not shown): the Inhibition % was found to be 28.8%.

As to `O=C1CCCc2cc(C(=O)CCl)ccc2N1`, the Inhibition % is reported as 86.5%.

Take `CC(=O)N1CCN(C(=O)C=Cc2c(C)nn(C)c2Cl)CC1`: the Inhibition % amounted to 8.55%.

Regarding `Cl.Cl.OB(O)c1ccc(CN2CCNCC2)cc1`, the Inhibition % is on record as -0.642%.

For `C=CC(=O)NCC1(CS(C)(=O)=O)CCOCC1`, the Inhibition % was found to be 7.52%.

In the case of `O=C(CCl)Nc1ccc(F)cc1F`, the Inhibition % came to 23.9%.

For `C=CC(=O)N[C@@H]1COC[C@H]1OC` (racemic), the Inhibition % stood at 5.32%.

For `O=C(CCl)Nc1ccc(N2CCCCC2)nc1`, the Inhibition % was determined as 88.9%.

Take `CCN(Cc1ccc(Cl)s1)C(=O)Cn1cnc(C#N)n1`: the Inhibition % is reported as 4.43%.

As to `O=C(O)[C@H]1CCCN1C(=O)C=Cc1c(F)cccc1F`, the Inhibition % is recorded as 9.91%.

As for `Cc1cccc(NC(=O)CCN2C(=O)CCC2=O)n1`, the Inhibition % is listed as 5.96%.

As for `CC1CC(Sc2nnc(N3CCCC3)s2)C(=O)O1` (stereo not shown), the Inhibition % is recorded as 3.23%.

Take `CC1CC(n2cnc3c2c(=O)n(C)c(=O)n3C)C(=O)O1` (stereo not shown): the Inhibition % was 8.16%.

As to `Cc1cccc(CNC(=O)CCl)c1`, the Inhibition % was 9.31%.

On to `CN(C)CC1CN(C2CCOC2=O)CCO1` (stereo not shown), for which the Inhibition % is reported as 5.76%.

For `C=CC(=O)NCc1cc(=O)n2ccccc2n1`, the Inhibition % was determined as 3.45%.

Consider `Cc1ccccc1CCNC(=O)Cn1cnc(C#N)n1`, for which the Inhibition % came out at 4.99%.

Take `CCc1nc(C)cn1S(=O)(=O)c1cc(OC)c(C)cc1C`: the Inhibition % is reported as 2.8%.

In the case of `C=CC(=O)N1CCCC(c2ncc(C(F)(F)F)[nH]2)C1` (stereo not shown), the Inhibition % is given as 9.81%.

Turning to `CN(CC(=O)Nc1ccccc1C(F)(F)F)C(=O)CCl`, the Inhibition % came out at 17.5%.

Consider `CS(=O)(=O)N1CCc2cc(C(=O)CCl)ccc21`, for which the Inhibition % came to 36.2%.

On to `C=CC(=O)NCC1CCCc2sc(C)nc21` (stereo not shown), for which the Inhibition % was 5.16%.

For `N#CC(=Cc1ccc2oncc2c1)C(=O)NC1CCCC1`, the Inhibition % was found to be 4.29%.

As to `Cc1ccc(C=C(C#N)C(=O)NCC2CCCO2)o1` (stereo not shown), the Inhibition % is given as -3.59%.

`O=C(O)c1cccc(C2OCCO2)c1`: the Inhibition % came to 10.2%.

For the compound `Cn1nccc1C(=O)CCl`, the Inhibition % is on record as 15.4%.

Turning to `CN(C(=O)c1ccc2c(=O)n(C)c(S)nc2c1)C1CCC1`, the Inhibition % turned out to be 9.53%.

In the case of `O=C(CCN1C(=O)CCC1=O)Nc1cccc(F)c1`, the Inhibition % was found to be 3.52%.

Regarding `N#Cc1ccccc1OS(=O)(=O)c1nccs1`, the Inhibition % came out at 25.6%.

Regarding `C=CC(=O)N1CCCc2c(cnn2C)C1`, the Inhibition % is 4.55%.

Take `CNC(=O)Oc1noc(C)c1C`: the Inhibition % amounted to 84.8%.

On to `C=CC(=O)NCCC1CCCCO1` (stereo not shown), for which the Inhibition % was 2.29%.

For `C=CCC1(Nc2cncc(C#N)n2)CCCC1`, the Inhibition % is 10.6%.

Consider `O=S(=O)(F)CCn1nnc2ccccc21`, for which the Inhibition % is recorded as 8.8%.

As for `O=C(O)C=CC(=O)N1CCOCC1`, the Inhibition % was 21.1%.
